# From publication PMC12136788
# Positions count from the first letter of the chain named. This is one part of the list.
# T1: UNK ZnF1-3 (human, UniProt Q9C0B0 31-174)
# T1 sequence: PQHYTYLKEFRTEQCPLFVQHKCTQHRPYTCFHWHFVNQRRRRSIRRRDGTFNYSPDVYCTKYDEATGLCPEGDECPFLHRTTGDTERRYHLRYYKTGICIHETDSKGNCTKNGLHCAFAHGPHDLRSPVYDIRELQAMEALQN
# B1: chr1:163117127:163117128:-_ENSG00000143248_ENST00000313961|hu_mus|hu_hu_hu_mus_False|18_98 (ssRNA)
# RNA: GGGAGUUCUACAGUCCGACGAUCUGCUACAAAGGAUGGAGGAAAUAUCACAGGGCAACUUUUGGAAGCCUGACCAGAUGACUACUUGAUUAGCUCCUUAUAAAAUUCAGAGCGCACAAAGCGAGGCAGAGAAUCCUUCUCCAUCAACAGAGGAUUGAGCAUCA
# B2: chr2:9570881:9570882:+_ENSG00000119203_ENST00000238112|hu_mus|hu_hu_hu_mus_False|18_98 (ssRNA)
# RNA: GGGAGUUCUACAGUCCGACGAUCACUUGUCUUCUGAAGAAACCAGGGCAGGGCUCCACAGUGAUCCAAAUGGAAAUGACUGAUCAACAGAAGGUCGAUCUCAGCUGGGUCGAUAAGAUCAAUAUAAGGAAGGGCAUCCAUUCCCAACAGAGGAUUGAGCAUCA
# B3: chr12:73047227:73047228:+_ENSMUSG00000034574_ENSMUST00000085299|mus_mus|motif|central (ssRNA)
# RNA: GGGAGUUCUACAGUCCGACGAUCUUCAAAUCUUUUGGCAAAUUCUAGUUCAUCUUCAUUUCGGAGCAUUUCAAAAAAGUCGGAAUGCCUGUCUAGUGUUGAAUUUUCAUGUUCCCUUAAUUUAUCUAUAACAGGUUGAAUUCCCAACAGAGGAUUGAGCAUCA
# B4: chr8:95500983:95500984:-_ENSG00000164944_ENST00000437199|hu_hu|hu_hu_hu_mus_True|58_58 (ssRNA)
# RNA: GGGAGUUCUACAGUCCGACGAUCAGAACACAUCUAUCGAGUAAAGGACCGUACAUGACGGCCUCUACCACUGCCUCCCACUAACAACUUUCCUCUCGAGCCUCCACUGCCGCUAUUUGUACUAGCCCAGGACGGUCCCAGGCCCAACAGAGGAUUGAGCAUCA
# B5: chr14:45963330:45963331:+_ENSMUSG00000021832_ENSMUST00000022380|perfect_dup|FALSE|FALSE (ssRNA)
# RNA: GGGAGUUCUACAGUCCGACGAUCGAUUUUCAGUAUGUCUAAUCUUGCUUGUUCAUUUGGCAAAUCAAUAUGUAUUUUUCUAUCUAAUCUUCCUGGACGCAGCAAAGCAGGAUCCAGUGUAUCUGGUCUGUUUGUAGCCAUGAUCAACAGAGGAUUGAGCAUCA
# B6: chr17:64801638:64801639:+_ENSG00000154229_ENST00000413366|hu_mus|hu_hu_hu_mus_False|28_68 (ssRNA)
# RNA: GGGAGUUCUACAGUCCGACGAUCUAUAUAUAUAUAUACAUAUGUACACAUAUAUAGUAAAACCCUAAUCUAUCACGUAAAGUAGCCAUUCAUUUUUAAAAUUACAUCUACAUUUAAAAAUUAAUAUAUCUGAUAGAGUGCCAGCAACAGAGGAUUGAGCAUCA
# B7: chr16:18151368:18151369:+_ENSMUSG00000043811_ENSMUST00000059589|mus_hu|FALSE|FALSE (ssRNA)
# RNA: GGGAGUUCUACAGUCCGACGAUCGGAGACGGUCGAGGCUGUGCAGCCCACGGAAGGCGCGCUCGGGCACGCUGGAGAUGCGGUUGCCGUGCAGGAAGAGGUGUGUGAGGUUGCCCAGGUCGCGGAAGGUGUCAUCAGGCAGUGCAACAGAGGAUUGAGCAUCA
# B8: chr22:32894459:32894460:+_ENSG00000100225_ENST00000397426|hu_mus|FALSE|FALSE (ssRNA)
# RNA: GGGAGUUCUACAGUCCGACGAUCCCAAAUUGGUCACAGGAAUGGCAGCCGGCUGUCAGCUGACCUACCCCUGCCGGGUCUGAAGGGAAAUCUGUUGUUGGGGAUAGCUCUUCCUGGCAAGAGGGAGUGAGGUCCUGGAAGUGGCAACAGAGGAUUGAGCAUCA
# B9: chr4:97781865:97781866:+_ENSMUSG00000028565_ENSMUST00000075448|mus_mus|motif|central (ssRNA)
# RNA: GGGAGUUCUACAGUCCGACGAUCUUGACCUAAACUGCCUUGGUCGGUGUUGCAUUUGCUUCCUGCUUGAUGACAACGGAACGGCAAUUUCCUGCUGCUUUCUGGACAAUGAAGCAUGAGCAGACCAGAACUUGGUGUACUGACCAACAGAGGAUUGAGCAUCA
# B10: chr5:143849297:143849298:-_ENSMUSG00000045078_ENSMUST00000053498|mus_hu|FALSE|FALSE (ssRNA)
# RNA: GGGAGUUCUACAGUCCGACGAUCUACAUUCAGAUCAUAAUAAUUCUUAAAAUGAAUUAUUUCCUCAAUAAACCCAUUUGCUACAUCUGGAAAUCUUGCUUCCGUUUCUUUCACUAGUAGUUCAACGAGCUCUUGAUCUACCUCCAACAGAGGAUUGAGCAUCA
# B11: chr9:79603372:79603373:-_ENSMUSG00000032330_ENSMUST00000034881|mus_mus|FALSE|FALSE (ssRNA)
# RNA: GGGAGUUCUACAGUCCGACGAUCCACGUGAAGACUGGGAUGACGACAUUAGUUCUGCUUCUUGGGAAAUGCAGCCAUAGCUAACAGAUAGAUGGCAUAGGCUGUGCCACCAAGCGUCAGAGCCAUUGUGGCUCUGUAGAGGAGCAACAGAGGAUUGAGCAUCA
# B12: chr16:94664741:94664742:+_ENSMUSG00000040785_ENSMUST00000117648|mus_hu|mus_mus_mus_hu_False|28_88 (ssRNA)
# RNA: GGGAGUUCUACAGUCCGACGAUCUGGUACUGAUCUUGGUAGCUGAUACUCAGAAGAAAGGCUGGCCAAGGGUGUAUAUAUGCUGGUGUACUGGGGCAAACCUGGUACCAUGUUAAUGUAUGCUGGCGGUGUCUGGGUGAUAUCCAACAGAGGAUUGAGCAUCA
# B13: chr1:39494564:39494565:+_ENSG00000168653_ENST00000372967|hu_hu|hu_hu_hu_mus_True|48_108 (ssRNA)
# RNA: GGGAGUUCUACAGUCCGACGAUCAUGUGCACGUCUCAUCGUUUUGUACCGAAGCAAGCACUCUUCGAAGUCAUCGAACUCUAUCUUGCACUCUUUCUUCGCCCGGGUCCCACCGAUCCCGUGUGCACACUCUAUCCACUCUUUCAACAGAGGAUUGAGCAUCA
# B14: chr2:198351390:198351391:-_ENSG00000144381_ENST00000345042|hu_hu|hu_hu_hu_mus_False|58_68 (ssRNA)
# RNA: GGGAGUUCUACAGUCCGACGAUCUCAUUCCCACCCUCCACAGAAAGGCUGCUUCUGAACUCUCAUGGUGGUGGCAAGCACUAAAAUCCUGAUGCUCACAGAACAGUAGAGAUGCCUCAGUGAUUUAAGUUGAAAGCAGGACACCAACAGAGGAUUGAGCAUCA
# B15: chr18:55283160:55283161:-_ENSG00000134440_ENST00000256854|hu_mus|FALSE|FALSE (ssRNA)
# RNA: GGGAGUUCUACAGUCCGACGAUCGUUCUUCAUCUGUGACUUAGAAAUAACAUCCCAUCUCUCAUUUUCCUUUUGUGAGUCCACAUAAAUGGUGGGAAAUGGCUCUUUUCCAACUGUCAUCAAAGCCUUUAGGCCUGUUUUAAACAACAGAGGAUUGAGCAUCA
# B16: 4757594_4757714_562_5pUTR_ENSMUSG00000044674_ENSMUST00000054294|mouse|control|control (ssRNA)
# RNA: GGGAGUUCUACAGUCCGACGAUCCUCCUCGGCGCGGAUUGACUGGGACGGGCAGCGGCGCGGCGGGUGGUGGCUCCCACUGUGAUCCGGGAGAGCUGGUCGCCCGUGCCCUCCGUCGGGGUGCGGCCGCUCUCUGCCCGCUCCCAACAGAGGAUUGAGCAUCA
# B17: chr1:163117127:163117128:-_ENSG00000143248_ENST00000313961|hu_mus|hu_hu_hu_mus_False|18_18 (ssRNA)
# RNA: B1 RNA with G38U, G40A, G41C, A42U, A43C, U45A, A46C
# B18: 24804945_24805959_3534_CDS_ENSG00000090905_ENST00000315183|human|control|control (ssRNA)
# RNA: GGGAGUUCUACAGUCCGACGAUCAAUCUCCACAUCCUCUUCCUCUUCCCAGCCAGUGGGGCGAUUUCCAGGCAAUGGCAUAUCAUCACCACACCAGCCAUCUUGCAUAGAUUUUGGCCCAGAUUUGCUUAAUGCUUGUGGACCCAACAGAGGAUUGAGCAUCA
# B19: chr16:22092171:22092172:+_ENSG00000185716_ENST00000542527|hu_hu|motif|central (ssRNA)
# RNA: GGGAGUUCUACAGUCCGACGAUCCAAUUUAGACAUUCAUCAGCCUGGUAAACAAACUUUGCCAGCAAAUAGAAGUCCGGCGGUUGUAAAGAAAAUUGAUAAGACAAAAAGUACAUAUGAUGACCCAACUACUGUGUUGUUGGGCAACAGAGGAUUGAGCAUCA
# B20: 125022421_125022629_1965_CDS_ENSMUSG00000014444_ENSMUST00000067252|mouse|control|control (ssRNA)
# RNA: GGGAGUUCUACAGUCCGACGAUCGGUGACCAGCUCCCCCAGGCUCCGCAGCAGCGUCUGGGUCUGUGUGGGCUCAGUGUCGGCCACCGUGACCUCCAAAAGCGCCGCAGGCACCUUUUGCUUCUUCAGCAGCUUCUCCUUCACCAACAGAGGAUUGAGCAUCA
# B21: chr4:99997526:99997527:-_ENSG00000197894_ENST00000296412|hu_hu|FALSE|FALSE (ssRNA)
# RNA: GGGAGUUCUACAGUCCGACGAUCGGAAUAGUCCACUCCUCCAUCGGUCAUCUCAAUGAGCACUUCCUGGAUGGGUUUACUAAAAUCCUGAGGGUUAAUACAUUCAGUGGCUCCAAACUCUUUGGCCCUUGCAAAUUUAUCUUUCAACAGAGGAUUGAGCAUCA
# B22: chr17:1756424:1756425:+_ENSG00000132383_ENST00000254719|hu_mus|FALSE|FALSE (ssRNA)
# RNA: GGGAGUUCUACAGUCCGACGAUCUAGGGCACUGGAUUCCCAAUCUUUAAUCCAACGUCUUCAGCAGAUUUCAUAACUUCCAAGUCCAUCAAAACAACUACUUUCCUGCCGUCUUUCAGGGUGUUGACGAUGAACUUGUGGACCCAACAGAGGAUUGAGCAUCA
# Target: T1, UNK ZnF1-3
# Test: nsRBNS (natural sequence RNA bind-n-seq); RBNS binding buffer (assumed for nsRBNS): 25 mM Tris pH 7.5, 150 mM KCl, 3 mM MgCl2, 0.01% Triton X-100, 500 ug/ml BSA, 20 U/ml SUPERase-In, 4 C; UNK is unkempt and MSI1 is Musashi-1; names of the RNAs are library labels; protein concentration not given here; high values mean tight binding
row,Binder,binding signal [enrichment R]
1,B1,1.66
2,B2,1.53
3,B3,0.606
4,B4,1.15
5,B5,0.578
6,B6,1.44
7,B7,1.46
8,B8,1.04
9,B9,0.863
10,B10,0.511
11,B11,1.06
12,B12,1.05
13,B13,0.603
14,B14,1.28
15,B15,0.621
16,B16,0.339
17,B17,1.07
18,B18,0.793
19,B19,1.07
20,B20,0.578
21,B21,0.707
22,B22,0.497
